Data: PubChem BioAssay AID651820 (National Center for Advancing Translational Sciences (NCATS), 2012)
Hit rate of the full screen: of about 340,000 compounds, about 12,000 (3.5%) were called active. This list was built around the results that the source calls inconclusive (neither active nor inactive); the mix of calls is not that of the screen. Calls follow the shape of the dose curve; as a rule, active = well fitted inhibition curve with a large enough effect; inconclusive = small, poorly fitted or top-dose-only effect, or another doubt; inactive = no such curve, though single readings can be large or run the other way. No potency is given beside an inconclusive call; the fits are too rough.

Assay: qHTS Assay for Inhibitors of Hepatitis C Virus (HCV)
Details: Huh7.5.1 HCVcc-Cre (HCVcc is cell-culture hepatitis C virus) infection, luciferase reporter, 44 h; activity change, negative = inhibition: at 41.8 µM (top of the series)
Procedure, shortened: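 Cells seeded at 1,000/well and cultured 4 h, then compounds added followed by HCVcc-Cre virus (~0.5 moi). After 44 h further culture, luciferase substrate was added, plates held 15 min at room temperature, and luminescence read for 15 sec.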
% is scaled to controls: 0 for no effect and ±100 for the full control effect; potency is read from the fitted curve at half-maximal effect; tags tell the direction and shape of the fitted curve.

SMILES | Potency | activity change, negative = inhibition
CCCCCn1c(=O)c(C(=O)Nc2ccccc2S(N)(=O)=O)c(O)c2ccccc21 | inconclusive [inhibitor, partial curve] | 
COc1cc(C(=O)N/N=C/c2sc(=O)n(-c3ccccc3)c2Cl)cc(OC)c1OC | inconclusive [inhibitor, full curve, poor fit] | 
CC(=O)N1CCN(CC(=O)Nc2ccccc2Sc2ccc(Cl)cc2)CC1 | inconclusive [inhibitor, single point] | 
COc1ccccc1N1CCN(C2CCCN(C(=O)c3cccc(-c4ccco4)c3)C2)CC1 (stereo not drawn) | inconclusive [inhibitor, partial curve] | 
COc1ccc(/C=N/Nc2nc(Nc3ccccc3)nc(N3CCCCC3)n2)cc1OC | inconclusive [inhibitor, partial curve] | 
C[C@H](CO)N1C[C@H](C)[C@@H](CN(C)C(=O)NC2CCCCC2)Oc2c(NC(=O)Nc3ccc(C(F)(F)F)cc3)cccc2C1=O | inconclusive [inhibitor, single point] | 
O=S(=O)(c1ccccc1)c1cnc(-c2ccccc2)nc1N1CCCC1 | inconclusive [inhibitor, partial curve, poor fit] | 
O=C(Nc1ccccc1C(=O)NC(Cc1ccccc1)C(=O)NC1CCCCCC1)c1ccccc1 (stereo not drawn) | inconclusive [inhibitor, single point] | 
C=CCNc1sc(C(=O)c2ccccc2)c(N)c1C#N | inconclusive [inhibitor, single point] | 
O=C(O)C1CCCCC1C(=O)Nc1cccc2ccccc12 (stereo not drawn) | inconclusive [inhibitor, partial curve] | 
COc1cccc(C(=O)n2c(SC)nc3cc4c(cc32)OCCO4)c1 |  | inactive: 14.6%
CC(C)(C)c1ccc(/C=C2\SC(=O)N(CCNC(=O)c3cccc(S(=O)(=O)N4CCOCC4)c3)C2=O)cc1 | inconclusive [inhibitor, partial curve] | 
CC(C)Oc1cc(-n2c(=S)[nH]c3ccccc3c2=O)c(Cl)cc1Cl | inconclusive [inhibitor, single point] | 
COc1c(C)cc(C(=O)C2CCCN(C(=O)c3cc(C)on3)C2)cc1C (stereo not drawn) | inconclusive [inhibitor, single point] | 
COCCCNC(=O)c1cn(C)c(=O)c2c1c1ccccc1n2C |  | inactive: -0.289%
CC(C)c1cc(C(=O)NNC(=S)NC2CCCCC2)cs1 | inconclusive [inhibitor, single point] | 
COc1ccc(OC)c(C(=O)CCCC(=O)c2cc(OC)ccc2OC)c1 | inconclusive [inhibitor, single point] | 
CCCOc1ccc(C(=O)Nc2ccc3c(c2)OCO3)cc1 | inconclusive [inhibitor, single point] | 
COc1cc(CN2CCN(Cc3ccc([N+](=O)[O-])cc3)CC2)c([N+](=O)[O-])cc1OC |  | inactive: -4.26%
Cc1cc(Cl)ccc1N(CC(=O)NCCSCc1ccco1)S(C)(=O)=O |  | inactive: 9.21%
CC(=O)Nc1cccc(NC(=O)Cc2cccs2)c1 |  | inactive: 2.79%
COc1cccc(OCC(=O)O/N=C(\N)c2ccncc2)c1 |  | inactive: -10.3%

SMILES | Potency | activity change, negative = inhibition
O=c1c2ccccc2ncn1CCCOc1ccccc1[N+](=O)[O-] | inconclusive [inhibitor, single point] | 
CC1CC(C)CN(CC(=O)N2c3ccccc3CCc3ccccc32)C1 (stereo not drawn) | inconclusive [inhibitor, single point] | 
CC(=O)N1CC(=O)N=C1SCC(=O)Nc1nc(-c2ccccc2)c(-c2ccccc2)s1 | inconclusive [inhibitor, single point] | 
COc1ccc2sc(-c3ccc(N(C)C)cc3)c(C#CCCO)c2c1 | active: 1.41 µM | 
CCC(C)NC(=O)c1cn(C)c(=O)c2cc(OC)c(OC)cc12 (stereo not drawn) | inconclusive [inhibitor, single point] | 
CC(C)c1ccc(OCc2ccc(C(=O)N3CCN(c4ccccn4)CC3)cc2)cc1 | active: 5.01 µM | 
COc1ccccc1C1CC(=O)NC(C)=C1C(=O)OCC(C)C (stereo not drawn) | inconclusive [inhibitor, partial curve] | 
COc1cccc(C(=O)NCCS(=O)(=O)N(C)Cc2ccccc2)c1 |  | inactive: 15%
Cc1cccc(NC(=O)C2CCN(S(=O)(=O)c3ccc4c(c3)OCCCO4)CC2)n1 | inconclusive [inhibitor, partial curve] | 
C=CCn1c(SCC(=O)Nc2cc3oc4ccccc4c3cc2OC)nnc1-c1cnccn1 | active: 12.6 µM | 
Cc1cc(C)c(NC(=O)CNC(=O)Cc2sc(C)nc2-c2ccc(F)cc2)c(C)c1 | inconclusive [inhibitor, full curve] | 
Cc1ccc(CNC(=O)C2CC3Cn4c(nc5cc6ccccc6cc54)C3N2C)o1 (stereo not drawn) |  | inactive: -17% [at 8.37 µM]
COCCn1c(C(C)C)nc2ccccc21 |  | inactive: 8.29%
CCOCCSc1n[nH]c(=O)n1CCc1ccccc1 |  | inactive: 14.5%
CCc1ccc(NC(=O)CSc2nc3ccccc3c(=O)n2CCCC(=O)NCCCN2CCOCC2)cc1 | active: 11.2 µM | 
Cc1[nH]c(-c2ccc(F)cc2)cc1C(=O)N1CCN(c2cccc(Cl)c2)CC1 | inconclusive [inhibitor, single point] | 
COc1cccc(S(=O)(=O)NCc2ccc(C(=O)Nc3ccc(Cl)c(Cl)c3)cc2)c1 | inconclusive [inhibitor, partial curve] | 
CSc1cccc(NC(=S)N(CCCN2CCCC2)Cc2cccs2)c1 | inconclusive [inhibitor, partial curve] | 
CNC(=S)N(CCc1c(C)[nH]c2ccc(C)cc12)Cc1ccc(OC)c(OC)c1 | inconclusive [inhibitor, partial curve] | 
Cc1nn(-c2cccc(Cl)c2)c(Cl)c1/C=N/NC(=O)c1cccnc1 | inconclusive [inhibitor, single point] | 
O=C(/C=C/c1ccc(Cl)c([N+](=O)[O-])c1)c1ccc(O)cc1 | inconclusive [inhibitor, single point] | 
